Experimental data: the supplement of paper PMC11876631
± gives the standard deviation of the averaged measurements. Laboratory Escherichia coli strains with one amino-acid change in an essential protein, pooled on minimal glucose agar with carbenicillin or gentamicin at twice the control MIC (plus kanamycin and chloramphenicol for the plasmids), 48 h. Fold change of barcode share against drug-free plates; higher = less susceptible. Active = above 20 in both replicates (the paper's putatively resistant). '<' = one read or none on drug, '>' = one read or none on a drug-free plate. Shares are relative, so most strains fall below 1 when a few take over. Listed are strains with at least 15 reads on both drug-free plates, and hits; most hits rest on fewer reference reads. Replicate rank correlation about 0.5. Edits are read from barcodes.

B1: fbaA L335A (protein)
chain: MSKIFDFVKPGVITGDDVQKVFQVAKENNFALPAVNCVGTDSINAVLETAAKVKAPVIVQFSNGGASFIAGKGVKSDVPQGAAILGAISGAHHVHQMAEHYGVPVILHTDHCAKKLLPWIDGLLDAGEKHFAATGKPLFSSHMIDLSEESLQENIEICSKYLERMSKIGMTLEIELGCTGGEEDGVDNSHMDASALYTQPEDVDYAYTELSKISPRFTIAASFGNVHGVYKPGNVVLTPTILRDSQEYVSKKHNLPHNSLNFVFHGGSGSTAQEIKDSVSYGVVKMNIDTDTQWATWEGVLNYYKANEAYLQGQLGNPKGEDQPNKKYYDPRVWARAGQTSMIARLEKAFQELNAIDVL
B2: fbaA L107A (protein)
chain: MSKIFDFVKPGVITGDDVQKVFQVAKENNFALPAVNCVGTDSINAVLETAAKVKAPVIVQFSNGGASFIAGKGVKSDVPQGAAILGAISGAHHVHQMAEHYGVPVIAHTDHCAKKLLPWIDGLLDAGEKHFAATGKPLFSSHMIDLSEESLQENIEICSKYLERMSKIGMTLEIELGCTGGEEDGVDNSHMDASALYTQPEDVDYAYTELSKISPRFTIAASFGNVHGVYKPGNVVLTPTILRDSQEYVSKKHNLPHNSLNFVFHGGSGSTAQEIKDSVSYGVVKMNIDTDTQWATWEGVLNYYKANEAYLQGQLGNPKGEDQPNKKYYDPRVWLRAGQTSMIARLEKAFQELNAIDVL
B3: fbaA L335P (protein)
chain: MSKIFDFVKPGVITGDDVQKVFQVAKENNFALPAVNCVGTDSINAVLETAAKVKAPVIVQFSNGGASFIAGKGVKSDVPQGAAILGAISGAHHVHQMAEHYGVPVILHTDHCAKKLLPWIDGLLDAGEKHFAATGKPLFSSHMIDLSEESLQENIEICSKYLERMSKIGMTLEIELGCTGGEEDGVDNSHMDASALYTQPEDVDYAYTELSKISPRFTIAASFGNVHGVYKPGNVVLTPTILRDSQEYVSKKHNLPHNSLNFVFHGGSGSTAQEIKDSVSYGVVKMNIDTDTQWATWEGVLNYYKANEAYLQGQLGNPKGEDQPNKKYYDPRVWPRAGQTSMIARLEKAFQELNAIDVL
B4: fbaA L335W (protein)
chain: MSKIFDFVKPGVITGDDVQKVFQVAKENNFALPAVNCVGTDSINAVLETAAKVKAPVIVQFSNGGASFIAGKGVKSDVPQGAAILGAISGAHHVHQMAEHYGVPVILHTDHCAKKLLPWIDGLLDAGEKHFAATGKPLFSSHMIDLSEESLQENIEICSKYLERMSKIGMTLEIELGCTGGEEDGVDNSHMDASALYTQPEDVDYAYTELSKISPRFTIAASFGNVHGVYKPGNVVLTPTILRDSQEYVSKKHNLPHNSLNFVFHGGSGSTAQEIKDSVSYGVVKMNIDTDTQWATWEGVLNYYKANEAYLQGQLGNPKGEDQPNKKYYDPRVWWRAGQTSMIARLEKAFQELNAIDVL
B5: fbaA I120A (protein)
chain: MSKIFDFVKPGVITGDDVQKVFQVAKENNFALPAVNCVGTDSINAVLETAAKVKAPVIVQFSNGGASFIAGKGVKSDVPQGAAILGAISGAHHVHQMAEHYGVPVILHTDHCAKKLLPWADGLLDAGEKHFAATGKPLFSSHMIDLSEESLQENIEICSKYLERMSKIGMTLEIELGCTGGEEDGVDNSHMDASALYTQPEDVDYAYTELSKISPRFTIAASFGNVHGVYKPGNVVLTPTILRDSQEYVSKKHNLPHNSLNFVFHGGSGSTAQEIKDSVSYGVVKMNIDTDTQWATWEGVLNYYKANEAYLQGQLGNPKGEDQPNKKYYDPRVWLRAGQTSMIARLEKAFQELNAIDVL
B6: fbaA L335Q (protein)
chain: MSKIFDFVKPGVITGDDVQKVFQVAKENNFALPAVNCVGTDSINAVLETAAKVKAPVIVQFSNGGASFIAGKGVKSDVPQGAAILGAISGAHHVHQMAEHYGVPVILHTDHCAKKLLPWIDGLLDAGEKHFAATGKPLFSSHMIDLSEESLQENIEICSKYLERMSKIGMTLEIELGCTGGEEDGVDNSHMDASALYTQPEDVDYAYTELSKISPRFTIAASFGNVHGVYKPGNVVLTPTILRDSQEYVSKKHNLPHNSLNFVFHGGSGSTAQEIKDSVSYGVVKMNIDTDTQWATWEGVLNYYKANEAYLQGQLGNPKGEDQPNKKYYDPRVWQRAGQTSMIARLEKAFQELNAIDVL
B7: argA L172Q (protein)
chain: MVKERKTELVEGFRHSVPYINTHRGKTFVIMLGGEAIEHENFSSIVNDIGLLHSLGIRLVVVYGARPQIDANLAAHHHEPLYHKNIRVTDAKTLELVKQAAGTLQLDITARLSMSLNNTPLQGAHINVVSGNFIIAQPLGVDDGVDYCHSGRIRRIDEDAIHRQLDSGAIVQMGPVAVSVTGESFNLTSEEIATQLAIKLKAEKMIGFCSSQGVTNDDGDIVSELFPNEAQARVEAQEEKGDYNSGTVRFLRGAVKACRSGVRRCHLISYQEDGALLQELFSRDGIGTQIVMESAEQIRRATINDIGGILELIRPLEQQGILVRRSREQLEMEIDKFTIIQRDNTTIACAALYPFPEEKIGEMACVAVHPDYRSSSRGEVLLERIAAQAKQSGLSKLFVLTTRSIHWFQERGFTPVDIDLLPESKKQLYNYQRKSKVLMADLG

What follows are proteins tested against Escherichia coli (laboratory strain) (assay: barcode share on antibiotic plates over drug-free plates; higher = less susceptible). Conditions: antibiotic: carbenicillin; 2× MIC (3.1 µg/mL).
Description: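 A pool of E. coli strains, each edited to carry one amino-acid change in an essential protein, was grown for 48 h on minimal glucose agar with or without antibiotic; strain barcodes were sequenced; mean of two replicates.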
B1 was tested, and the “fold change of barcode share” value was 0.273 ± 0.033. B2 was tested, and the “fold change of barcode share” value was 0.418 ± 0.16. In the case of B3, the “fold change of barcode share” value is reported as 0.649 ± 0.54. B4 was tested, and the “fold change of barcode share” value was 0.266 ± 0.12. With B5 the “fold change of barcode share” value was 0.415 ± 0.16. In the case of B6, the “fold change of barcode share” value is reported as 0.762 ± 0.3. For B7, the “fold change of barcode share” value was 0.529 ± 0.1.

Same assay, conditions: antibiotic: gentamicin; 2× MIC (MIC 0.45 µg/mL)
With B1 the “fold change of barcode share” value was 0.524 ± 0.72. In the case of B2, the “fold change of barcode share” value is reported as < 0.0152. For B3, the “fold change of barcode share” value was 0.0181 ± 0.012. With B4 the “fold change of barcode share” value was 0.238 ± 0.32. For B5, the “fold change of barcode share” value was 0.0143 ± 0.01. With B6 the “fold change of barcode share” value was < 0.00697.
